Results on 88 molecules are retold here after PubChem BioAssay AID463173 (ICCB-Longwood Screening Facility, Harvard Medical School, 2010).

SMILES strings stand for the structures. Out of some 52,000 compounds screened, about 4,300 (8.3%) were called active. No stated cut-off is given here; in the data, active means survival mostly below about 52% (no sharp cut-off); inactive means mostly above about 56%. The list shows a part of the results.

The subject of this experiment is DeltatarO mutant. As to the kind of experiment: S. aureus survival, RN4220 and DeltatarO strains – OD600, teichoic acid synthesis inhibitors, primary screen (AID 463173). The settings on record: S. aureus RN4220 wild type/DeltatarO growth, OD600, 18 h, stronger effect = lower value, screened at 18.75 µg/mL (by protocol).
For the molecule `Cc1ccccc1NC(=O)c1c2c(nc3ccccc13)C(=O)N(C1CCCCC1)C2`, the survival is inactive: 105%.

`Cc1ccc(-n2c3nc(=O)[nH]c(=O)c-3cc3c(Cl)cccc32)cc1`: the survival was inactive: 77%.

With `Cc1ccc(NC(=O)c2sc(-n3nc(C)c(Cc4ccc(Cl)cc4)c3C)nc2C)cc1`, the survival is inactive: 75%.

In the case of `Cc1ccc(Cn2ccnc2SCC(=O)Nc2ccc3c(c2)OCO3)cc1`, the survival was inactive: 92%.

`Cc1ccc(C)c(NC(=O)N2CCN(C)c3ncccc32)c1`: the survival is inactive: 92%.

`CCOc1ccc(NC(=O)c2c(NC(=O)Cc3ccccc3)sc3c2CCCC3)cc1`: the survival was active: 45%.

Turning to `CCN(Cc1ccccc1)C(=O)Cn1c(=O)n(-c2ccc(OC)cc2OC)c(=O)c2c(C)c(C)sc21`, the survival is inactive: 86%.

`CCOc1ccc(CNC(=O)c2ccc(-c3nc(CSc4ccc(C)cc4)c(C)o3)cc2)cc1`: the survival is inactive: 79%.

As for `COc1ccc(Cl)cc1NC(=O)Cn1c(=O)n(Cc2ccco2)c(=O)c2ccc(C(=O)NC3CCCC3)cc21`, the survival was inactive: 94%.

In the case of `COc1ccc2c(Sc3ccccc3)c(C(=O)NCc3ccc(OC(C)C)cc3)[nH]c2c1`, the survival is inactive: 103%.

For the molecule `COc1ccc(-c2nc3ccc(NS(=O)(=O)c4ccccc4)cc3o2)cc1`, the survival is active: 36%.

Regarding `COc1cccc(CNC(=O)c2cc3n(n2)CCCN(Cc2ccc(C)cc2)C3=O)c1OC`, the survival was inactive: 89%.

Take `Cc1cccc(-c2nnc3n(CCc4ccccc4)c(=O)c4ccccc4n23)c1`: the survival is inactive: 75%.

Turning to `CCOc1ccc(-n2c(SCC(=O)NCc3ccco3)nc3c([nH]c4ccccc43)c2=O)cc1`, the survival is active: 37%.

Take `Nc1ccc(CN2C(=O)c3ccccc3C2=O)cc1`: the survival was inactive: 91%.

With `CCOc1ccccc1NC(=O)c1cc(=O)c2ccc(C)cc2o1`, the survival is active: 44%.

In the case of `COc1ccc(NC(=O)CSc2oc(-c3cccs3)nc2S(=O)(=O)c2ccc(C)cc2)c(OC)c1`, the survival was inactive: 63%.

As for `O=C(Cc1cccs1)NC1CC(=O)N(c2cccc(F)c2)C1` (stereo not drawn), the survival is inactive: 88%.

Take `COc1ccc(C2(Nc3cccc(C(=O)O)c3C)C(=O)c3ccccc3C2=O)cc1`: the survival was inactive: 80%.

Consider `O=C(/C=C\c1ccc2c(c1)OCO2)NC1CC(=O)N(c2ccc(Cl)cc2)C1` (stereo not drawn), for which the survival was inactive: 84%.

As to `Cc1ccc(NC(=O)C2CCN(S(=O)(=O)c3c(C)noc3C)CC2)c(C)c1`, the survival was inactive: 109%.

With `COc1ccc(-c2csc3nc(-c4ccccc4C)oc(=O)c23)cc1OC`, the survival is inactive: 59%.

`CC(=O)N1CCOc2cc(S(=O)(=O)NCc3ccc(C)cc3)c(Cl)cc21`: the survival is inactive: 76%.

Take `O=C(O)CSC1=NCCN1`: the survival was inactive: 79%.

For `FC(c1nc2ccccc2[nH]1)C(F)(F)F` (stereo not drawn), the survival is inactive: 78%.

Take `CCOc1ccccc1NC(=O)CSc1nc(=O)[nH]c2c1CCCC2`: the survival is inactive: 66%.

Take `O=C(CS(=O)(=O)c1cccc2nsnc12)Nc1ccccc1`: the survival is inactive: 80%.

For the molecule `COc1ccccc1CNC(=O)CN1C(=O)COc2ccc(S(=O)(=O)Nc3ccccc3)cc21`, the survival is inactive: 118%.

In the case of `CSCCC(NS(=O)(=O)c1ccc2c(c1)oc(=O)n2C)C(=O)N1CCN(c2cc(C)ccc2C)CC1` (stereo not drawn), the survival was inactive: 57%.

For `COc1ccc(C2CC(=O)NC(NC(=O)c3ccc(Br)cc3)=N2)c(OC)c1OC` (stereo not drawn), the survival is inactive: 86%.

As for `CC(C)(C)c1ccc(C(=O)NCCc2csc3nc(-c4ccccc4F)nn23)cc1`, the survival is inactive: 84%.

In the case of `COc1cccc(C(=O)Nc2ccc3nc(SCC(=O)N4CCOCC4)sc3c2)c1`, the survival was inactive: 65%.

Consider `Cn1c(=O)n(C)c2cc(NS(=O)(=O)c3ccc(F)cc3)ccc21`, for which the survival was inactive: 87%.

With `Cc1cc(C)n2c(Nc3ccc(Cl)cc3)c(-c3ccsc3)nc2n1`, the survival is inactive: 116%.

For the molecule `CCCCS(=O)(=O)c1oc(-c2cccs2)nc1S(=O)(=O)c1ccccc1`, the survival is active: -5%.

As to `Cc1ccc2c(CN3CCN(C(=O)c4ccc(F)cc4)CC3)cc(=O)oc2c1`, the survival was active: 33%.

Turning to `CNc1nnc(-c2ccccc2)s1`, the survival was inactive: 74%.

For the molecule `Cc1ccc(OCC(=O)N(c2ccc(C)cc2)S(=O)(=O)c2ccc(Cl)cc2)cc1`, the survival is inactive: 78%.

For the molecule `Cc1cccc(C)c1NC(=O)Cn1c(=O)n(Cc2ccccc2)c(=O)c2c(C)c(C(=O)N(C)C)sc21`, the survival is inactive: 94%.

On to `COc1ccc(Cl)cc1NS(=O)(=O)c1ccc2[nH]c3c(c2c1)CCCC3`, for which the survival is inactive: 79%.

On to `Cc1ccc(-c2nc3sc(CCNS(=O)(=O)c4cc(F)ccc4F)c(C)n3n2)cc1`, for which the survival was active: -2%.

Regarding `Cc1ccc(Cl)cc1-n1c(=O)cc(N2CCN(c3ccc(F)cc3)CC2)[nH]c1=O`, the survival was inactive: 70%.

As for `Cc1cc(C)c2oc(C(=O)Nc3ccc(S(=O)(=O)N4CCCCC4)cc3)cc(=O)c2c1`, the survival was active: 45%.

With `COc1ccc(OC)c(NC(=O)Cn2cnc3ccc(S(=O)(=O)N4CCC(C)CC4)cc3c2=O)c1`, the survival is inactive: 59%.

In the case of `O=C(Nc1cc(-c2nc3ccccc3s2)ccc1Cl)c1cc2ccccc2o1`, the survival is inactive: 105%.

On to `CN(Cc1ccccc1)C(=O)c1ccc2c(c1)N(Cc1ccccc1F)C(=O)c1ccccc1S2(=O)=O`, for which the survival is inactive: 81%.

Turning to `O=S(=O)(Nc1ccccc1C(F)(F)F)c1ccc(N2CCCCS2(=O)=O)cc1`, the survival was inactive: 116%.

On to `CN(C(=O)CSc1nc2ccc(NC(=O)COc3ccc(Cl)cc3)cc2s1)c1ccccc1`, for which the survival is inactive: 72%.

Turning to `CCCOc1cccc(NC(=O)c2c(-c3ccccc3Cl)noc2C)c1`, the survival is active: 37%.

As for `O=C(Nc1cc2c(s1)CCCC2)c1ccccc1`, the survival is active: 46%.

Regarding `CCOC(=O)c1cc(S(=O)(=O)Nc2ccc(C)cc2Cl)[nH]n1`, the survival is inactive: 54%.

For the molecule `COc1cccc(NC(=O)C2CCC(CNS(=O)(=O)c3ccc4c(c3)CC(C)N4C(C)=O)CC2)c1` (stereo not drawn), the survival is inactive: 85%.

As for `COc1ccc(CNC(=O)CSc2nc3ccccc3nc2Cc2ccccc2)cc1`, the survival was inactive: 73%.

As for `O=C(CSc1nccn1Cc1ccco1)Nc1ccc(F)cc1`, the survival was inactive: 72%.

With `COc1ccc(Cn2c(CCC(=O)NCc3cccc(Cl)c3)nc3cccnc32)cc1`, the survival was inactive: 129%.

Consider `CCOC(=O)c1[nH]c(C)c(CCC(=O)NCc2ccc(N(C)C)cc2)c1C`, for which the survival is inactive: 86%.

In the case of `COc1ccc(S(=O)(=O)NCCc2cc3ccc(C)c(C)c3[nH]c2=O)cc1`, the survival was inactive: 109%.

In the case of `COc1cccc(/C=C/c2nc(C#N)c(NCCN(C)C)o2)c1`, the survival is inactive: 105%.

Turning to `Cn1c(=O)c2c(-c3ccc(Cl)cc3)n(Cc3ccccc3)cc2n(C)c1=O`, the survival is active: 40%.

`COc1cc(CN(C(=O)COc2ccc(C)cc2)c2ccccn2)cc(OC)c1OC`: the survival was inactive: 86%.

Turning to `CC(=O)Nc1ccc(-c2cc(C(=O)O)c3c(-c4ccccc4)[nH]nc3n2)cc1`, the survival is inactive: 56%.

Regarding `COc1ccc(C(=O)N2CCN(Cc3cc(=O)n4nc(-c5ccccc5C)sc4n3)CC2)cc1OC`, the survival was inactive: 123%.

As to `COc1ccc(C)cc1NC(=O)c1ccc2c(SCC(=O)O)c3c(nc2c1)CCCC3`, the survival is inactive: 77%.

As to `COc1ccc(NC(=O)c2sc3nc[nH]c(=O)c3c2C)cc1Cl`, the survival is inactive: 99%.

For `Cn1c(=O)n(-c2ccc3c(c2)OCO3)c2nc(-c3ccccc3)nc(C(N)=O)c21`, the survival is inactive: 68%.

Regarding `CCOC(=O)CC(NC(=O)Cn1nnc(-c2ccc(C(F)(F)F)cc2)n1)c1ccc(OC)cc1` (stereo not drawn), the survival is inactive: 104%.

Take `COc1cccc2c1cc1c(=O)n(CC(=O)N3CCN(c4cccc(C)c4)C(C)C3)nc(C)n12` (stereo not drawn): the survival was inactive: 116%.

With `Cc1cc(C)cc(NC(=O)CSc2cc(C)[nH]c(=O)n2)c1`, the survival was inactive: 90%.

As to `CCCC1=Nc2cc(C(=O)NC3CCCC3)ccc2Sc2ccc(C)cc21`, the survival is active: 46%.

For `CCCn1c(=O)sc2cc(NC(=O)COc3ccc(Cl)cc3)ccc21`, the survival is inactive: 55%.

Turning to `CC1CCC(NC(=O)c2ccc3c(c2)N(Cc2cccc(Cl)c2)C(=O)c2ccccc2S3(=O)=O)CC1` (stereo not drawn), the survival was inactive: 74%.

With `CCc1ccccc1NC(=O)Cn1nnc(C(=O)NCc2ccccc2Cl)c1N`, the survival is active: 20%.

Regarding `CCN(CC)CC(C)CNC(=O)c1cc(-c2ccc(Br)s2)nc2ccccc12` (stereo not drawn), the survival is active: 31%.

For the molecule `COc1cccc(CN(C(=O)c2oc3cc(C)ccc3c2C)C2CCS(=O)(=O)C2)c1` (stereo not drawn), the survival is inactive: 57%.

In the case of `CN(C)S(=O)(=O)c1ccc2c(c1)C(=C(C#N)C#N)c1cc(S(=O)(=O)N(C)C)ccc1-2`, the survival was inactive: 113%.

Turning to `CCOC(=O)c1ccc(NS(=O)(=O)c2ccc3c(c2)n(C)c(=O)n3C)cc1`, the survival is inactive: 96%.

For the molecule `CCCCNC(=O)c1nn(-c2ccc(CC)cc2)nc1CO`, the survival is active: 41%.

As for `CC(NC(=O)c1ccccc1NC(=O)c1ccccc1)C(=O)NCc1ccco1` (stereo not drawn), the survival was inactive: 76%.

Take `Cc1nnc(NC(=O)CSCc2cc(=O)c3cc(Cl)ccc3[nH]2)s1`: the survival was inactive: 89%.

On to `O=S(=O)(NCc1ccc(F)cc1)c1ccc(-c2cnc(C3CC3)o2)cc1`, for which the survival was inactive: 95%.

Turning to `Cc1ccc(C(=O)c2cn(CC(=O)NC3CCCCC3)c3nc(C)ccc3c2=O)cc1`, the survival is inactive: 93%.

Turning to `O=C(O)CC(C(=O)O)c1cn(Cc2ccccc2)c2ccccc12` (stereo not drawn), the survival was inactive: 83%.

As to `COc1cccc(C(=O)Nc2ccccc2C(=O)OCc2cc(=O)n3nc(C4CC4)sc3n2)c1`, the survival is inactive: 65%.

On to `Cc1c(C(=O)N2CCCC2)oc2c1-c1nn(CC(=O)NCCCOC(C)C)cc1CC2`, for which the survival is inactive: 82%.

Take `CCOC(=O)C1CCN(C(=O)c2ccccc2N(C)S(C)(=O)=O)CC1`: the survival was inactive: 107%.

Turning to `COc1ccc(-c2nc3c4ccccc4n(CC(=O)N4CCN(c5ccccc5OC)CC4)c(=O)n3n2)cc1`, the survival was inactive: 87%.

`CCN(CC)CCCNC(=O)CN1C(=O)CCn2nc(-c3cn(C)c4ccccc34)cc21`: the survival was inactive: 87%.

For the molecule `COc1ccc(CCNC(=O)c2ccc3c(c2)c(C)c(C)n3Cc2ccc(F)cc2)c(OC)c1OC`, the survival is inactive: 77%.
